Results: PMC4336329 (PLoS ONE, 2015)
Hit rate of the full screen: of about 310,000 compounds, about 14,000 (4.5%) showed an effect of 50% or more. The effect is printed as a negative number. This is one part of the list.

Target: human ether-à-go-go-related gene (hERG) potassium channel (human, UniProt Q12809)
Experiment: primary screen, population patch clamp on CHO cells stably expressing hERG
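Further: peak tail current of the secondary pulse compared with the same well before compound.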

human ether-à-go-go-related gene (hERG) potassium channel, sequence (Q12809 whole entry, looked up): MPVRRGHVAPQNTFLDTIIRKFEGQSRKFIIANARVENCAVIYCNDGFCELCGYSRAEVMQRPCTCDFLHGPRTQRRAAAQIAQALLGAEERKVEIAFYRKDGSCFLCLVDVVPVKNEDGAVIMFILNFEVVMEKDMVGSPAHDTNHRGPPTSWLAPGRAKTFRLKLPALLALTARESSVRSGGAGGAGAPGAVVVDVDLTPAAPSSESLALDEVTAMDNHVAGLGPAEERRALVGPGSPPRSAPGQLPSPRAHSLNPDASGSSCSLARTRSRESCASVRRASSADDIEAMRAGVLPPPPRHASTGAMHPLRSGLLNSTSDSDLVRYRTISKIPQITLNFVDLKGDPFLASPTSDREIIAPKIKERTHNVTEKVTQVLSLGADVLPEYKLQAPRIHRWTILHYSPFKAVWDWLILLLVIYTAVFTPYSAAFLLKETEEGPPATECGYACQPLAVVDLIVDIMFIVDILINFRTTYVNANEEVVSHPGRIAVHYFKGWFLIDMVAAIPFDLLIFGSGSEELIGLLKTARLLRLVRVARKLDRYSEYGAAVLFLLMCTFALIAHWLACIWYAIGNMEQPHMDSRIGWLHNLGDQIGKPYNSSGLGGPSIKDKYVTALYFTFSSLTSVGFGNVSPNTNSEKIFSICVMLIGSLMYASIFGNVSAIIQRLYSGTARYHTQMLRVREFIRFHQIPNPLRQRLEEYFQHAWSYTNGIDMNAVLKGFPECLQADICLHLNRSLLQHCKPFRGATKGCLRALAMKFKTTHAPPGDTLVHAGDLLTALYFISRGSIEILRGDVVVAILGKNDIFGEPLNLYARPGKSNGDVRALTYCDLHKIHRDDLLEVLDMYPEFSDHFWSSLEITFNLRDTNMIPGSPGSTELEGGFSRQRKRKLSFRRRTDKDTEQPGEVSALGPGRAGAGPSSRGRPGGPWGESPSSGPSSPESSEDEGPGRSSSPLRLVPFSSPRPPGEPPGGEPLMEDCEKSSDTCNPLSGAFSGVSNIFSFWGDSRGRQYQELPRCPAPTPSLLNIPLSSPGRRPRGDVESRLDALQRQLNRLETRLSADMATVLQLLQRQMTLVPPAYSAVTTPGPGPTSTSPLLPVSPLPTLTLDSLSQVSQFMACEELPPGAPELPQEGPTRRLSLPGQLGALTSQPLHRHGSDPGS

SMILES | hERG current change (%, negative = inhibition) at 10uM [%]
CS(=O)(=O)Nc1ccccc1C(=O)Nc1ccc2c(c1)OCCO2 | 15.4
C[C@@]12N[C@@H](Cc3ccccc31)c1ccccc12.O=C(O)/C=C\C(=O)O | 8.24
CCOc1cc(/C=C/C(=O)Nc2ccc(C(=O)NCCN(CC)CC)cc2)ccc1OCC(C)C | -32.2
CC(=O)Nc1ccc(OCC(O)Cn2cncn2)cc1 (centres unmarked) | 24.7
C=CCc1ccccc1OCC(=O)N/N=C/c1ccc(OC(C)=O)cc1OC(C)=O | -21.7
CC(OC(=O)c1cccn1C)C(=O)Nc1ccc2c(c1)OCO2 (centres unmarked) | -1.51
C=CCOc1ccc(/C=N/NC(=O)C(C)Sc2ccccn2)cc1OC (centres unmarked) | 9.27
CC1CCCCC1NC(=O)COC(=O)c1cc(=O)c2ccccc2o1 (centres unmarked) | 17.3
N#CCC(=O)NNc1c([N+](=O)[O-])cc(C(F)(F)F)cc1[N+](=O)[O-] | 28.8
CC(=O)c1ccc(N(C(=O)Cn2nnc(-c3ccccc3)n2)C(C(=O)NC2CCCCC2)c2ccccn2)cc1 (centres unmarked) | -0.553
COc1ccc(OCC(=O)NC(=S)Nc2ccccc2F)cc1 | 5.17
CNC(CC(=O)c1ccc([N+](=O)[O-])cc1)C(Cl)(Cl)Cl (centres unmarked) | 9.29
COc1cccc(N2CC(C(=O)Nc3nnc(SCCN4CCOCC4)s3)CC2=O)c1 (centres unmarked) | 1.95
COc1ccc(C(=O)C2(C)N(O)C(C)C(c3cccs3)=[N+]2[O-])cc1 (centres unmarked) | -0.251
CCOc1ccc2[nH]c(=O)c(CN(Cc3cccs3)Cc3nnnn3C(C)(C)CC)cc2c1 | -44
Nc1nonc1-n1nnc(C(=O)N/N=C/c2ccc(OCc3ccccc3F)cc2)c1CNc1ccccc1 | 15.9
O=C(CN1C(=O)C2CC=CCC2C1=O)Nc1nc2ccc(F)cc2s1 (centres unmarked) | -12.9
Cc1cc(C)cc(NC(=O)Nc2c(Br)cnn2C)c1 | -11
O=CNCC(=O)NCCc1ccc(Cl)cc1 | 6.96

SMILES | hERG current change (%, negative = inhibition) at 10uM [%]
O=C1CC(SC2=NCCS2)C(=O)N1c1ccc(Cl)cc1 (centres unmarked) | -10.8
CC(C)(C)C(=O)OCc1cn(-c2ccc(Cl)cc2)nn1 | -6.14
CC(NC(=O)c1cncc(Br)c1)c1ccc(S(N)(=O)=O)cc1 (centres unmarked) | -7.14
COc1cc(C(=O)N/N=C/c2ccc(OC(=O)c3cccc(C)c3)c(OC)c2)ccc1O | 5.97
CCCCCC(=O)NNC1CC(=O)N(c2cccc(OCC)c2)C1=O (centres unmarked) | 2.73
COC(=O)c1ccc(NC(=O)Cn2nnc3ccccc32)cc1 | 6.73
COc1ccc(NC(=S)N(CCN(C)C)C(C)c2ccco2)cc1 (centres unmarked) | -16.6
CCC(C)(C(=O)NC1CCCCC1)N(Cc1ccco1)C(=O)c1ccccn1 (centres unmarked) | -6.11
CNC(=O)c1sccc1S(=O)(=O)Cc1c(Cl)cccc1Cl | 4.89
COc1cc2c(cc1OC)C(C)N(C(=O)c1cc3c(s1)-c1ccccc1OC3)CC2 (centres unmarked) | -9.99
Cc1cc2cc(CCNC(=O)C3c4ccccc4Oc4ccccc43)c(=O)[nH]c2cc1C | -0.822
Cc1c(NC(=O)OCCNC(=O)Nc2ccccc2)sc(=S)n1C | 15
Oc1c(C=NCc2ccccc2)sc2ccccc12 | 5.42
Cc1ccc(NC(=O)C(=O)NCc2ccc(/C=N/NC(=O)c3c(C)nc4ccccn34)o2)cc1 | 1.37
O=[N+]([O-])c1ccc2[nH]c3c(c2c1)CCCC3 | 8.3
O=C1OC(c2ccc3c(c2)OCO3)=N/C1=C\c1ccc(C(=O)O)cc1 | 16.2
CN(c1ccccc1)c1ncccn1 | 18
CCOc1cc(-c2cc(-c3ccc(NC(C)=O)cc3)nc(N)c2C#N)ccc1O | 6.15
O=C1c2ccccc2-c2nc3ncnn3c(-c3ccccc3Cl)c21 | -5.42

SMILES | hERG current change (%, negative = inhibition) at 10uM [%]
COc1ccccc1-c1cn(C(C)(C)C)nc1C | 16
CC(=O)C1=C(O)C(=O)N(CCO)C1c1ccccc1 (centres unmarked) | 4.02
C=CCn1c(O)c(N=NC(=S)Nc2cccc(C)c2)c2ccccc21 | 4.29
COC(=O)c1ccc(C(=S)NCC2(N(C)C)CCCCC2)cc1 | 10.9
COc1ccc(C2=NOC(C(=O)NCc3ccc(F)cc3)C2)cc1 (centres unmarked) | -13.4
Cc1ccc(Cc2nc(-c3cccnc3)no2)cc1 | -17.8
COc1cc(CCC(=O)N2CCN(S(=O)(=O)c3ccc(C)cc3)CC2)cc(OC)c1OC | -14.3
NS(=O)(=O)c1ccc(CCNC(=O)c2cc(-c3cc(Cl)ccc3O)n[nH]2)cc1 | 16.3
CC(=O)c1ccccc1OCC(O)Cn1ccnc1 (centres unmarked) | 17.6
COC(=O)C1=CN(Cc2ccc(OC)cc2)C=C(C(=O)OC)C1c1cc(OC)c(OC)c(OC)c1 | -5.68
CC(=O)c1ccc(N2CCN(CC(O)COC(c3ccccc3)c3ccccc3C)CC2)cc1 (centres unmarked) | -41
CC(C)S(=O)(=O)C/C(N)=N/OC(=O)c1cc(Cl)cc(Cl)c1 | 13.9
CCN(CC)CCCNC(=O)c1cn(C)c2ccc(S(=O)(=O)N(C)C3CCCCC3)cc2c1=O | -24.8
COC(=O)c1ccc(-c2noc(CN3CCCC(CNC(C)=O)C3)n2)cc1 (centres unmarked) | 5.19
C=CCNc1nc(-c2sc(NC(=O)CC)nc2C)cs1 | -7.14
O=C(COc1ccc(F)cc1)N(c1ccccn1)C1CCCCC1 | 9.96
CCOc1ccc(C(=O)C(C)OC(=O)CN2C(=O)NC(C)(C)C2=O)cc1 (centres unmarked) | -7.23
COC(=O)c1ccc(/C=N/NC(=O)CNc2cccc(C)c2)cc1 | 0.756
